PubChem BioAssay AID686978 (National Center for Advancing Translational Sciences (NCATS), 2013)
In all, about 420,000 compounds went through this assay and about 64,000 (15%) were called active. Inconclusive results, whose numbers are uncertain, are shown with a selection of clear calls. The call rests on the fitted dose curve; in most records, active means well fitted inhibition curve with a large enough effect; inconclusive means small, poorly fitted or top-dose-only effect; inactive means flat fitted curve, though single readings scatter. Potencies of inconclusive entries are left out as doubtful fits.

test: qHTS for Inhibitors of human tyrosyl-DNA phosphodiesterase 1 (TDP1): qHTS in cells in absence of CPT; conditions: DT40 Tdp1-/- hTDP1 cells, no CPT, ATP luminescence, 48 h; activity change, negative = growth inhibition: at 46.2 µM (top of the series); further: nearly all actives have a fitted effect of over 55% in size
Summary of the method: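 Chicken DT40 Tdp1-/- cells complemented with human TDP1, screened without camptothecin (DMSO vehicle only), 400 cells/well. Compounds pin-transferred, cells incubated at 37 °C for at least 48 hr. Growth read as ATP-dependent luminescence (CellTiter-Glo, 30 min at RT).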
On the % scale 0 is the no-effect control and ±100 the full control effect; potency means the concentration at half of the fitted maximal effect; tags describe the fitted curve by direction and shape.

SMILES	activity change, negative = growth inhibition	Potency
O=C(CSc1ccccc1F)NNC(=O)c1ccncc1	inactive: 22.5%	
COc1cc(NC(=O)CNc2cccc(S(=O)(=O)N3CCCC3)c2)cc(OC)c1		inconclusive [inhibitor, single point]
OCC#CCSc1nnc(-c2ccc(Br)cc2)o1		inconclusive [inhibitor, single point]
Fc1ccc(-n2ncc3c(N4CCCCCC4)ncnc32)cc1		inconclusive [inhibitor, single point]
O=C(NC1CC1)c1ccc(N2CCCCC2)c([N+](=O)[O-])c1		inconclusive [inhibitor, single point]
CC(C)NC(=O)C1(C)CN(S(C)(=O)=O)CC(=O)N1Cc1ccc2c(c1)OCO2 (stereo not given)	inactive: 6.01%	
CCOC(=O)Cn1cc(Cl)c(=O)c(Cl)c1	inactive: -4.15%	
NNC(=O)c1ccc(CSc2nc3ccccc3[nH]2)cc1		inconclusive [inhibitor, single point]
Cc1cccc(C)c1NC(=O)CCCCCC1NC(=O)NC1C (stereo not given)	inactive: 22.3%	
Cc1ccc(NC(=O)N2CC3CCCN3c3ccccc32)c(C)c1 (stereo not given)		active: 18.4 µM
COc1cccc(OCc2ccc(Cn3nc(NC(=O)NCCc4ccc(OC)c(OC)c4)c4ccccc43)cc2)c1		inconclusive [inhibitor, single point]
CCCN(CCC)S(=O)(=O)c1cccc(C(=O)N=c2sccn2C)c1		inconclusive [inhibitor, single point]
N#CC1=C2N=C(N)c3ccccc3N2C2=C(C(=O)CCC2)C1c1cccc(Cl)c1 (stereo not given)		inconclusive [inhibitor, single point]
COc1ccc(-c2cc(C(=O)N3CCN(c4ccccc4O)CC3)c3ccccc3n2)cc1		inconclusive [inhibitor, single point]
S=C(NCCc1ccccc1)N1CCN(C23CC4CC(CC(C4)C2)C3)CC1		active: 8.2 µM
CCn1c(SCC(=O)Nc2ccc(OC)cc2)nc2nc3c(cc2c1=O)CCCC3		active: 23.1 µM
COc1ccc(NC(=O)c2ccco2)cc1NC(=O)COc1ccc(Cl)c(C)c1		inconclusive [inhibitor, partial curve]
CC1CCCC(C)N1C(=O)Cn1cc(/C=C2/C(=O)Nc3ccccc32)c2ccccc21 (stereo not given)		active: 20.6 µM
CCOC(=O)C1=CCN(S(=O)(=O)c2ccc(Cl)cc2)C1c1cccc(C)c1 (stereo not given)		inconclusive [inhibitor, single point]
CCOC(=O)C1=C(C)N=C2SC(C)C(=O)N2C1c1ccc(OCC)c(OCC)c1 (stereo not given)	inconclusive: -18.2% [inhibitor]	
COc1ccc(C(=S)NCS(=O)(=O)c2ccc(C)cc2)cc1		inconclusive [inhibitor, partial curve]
COc1ccc2[nH]c3c(c2c1)CCN1C(=O)C(CC(=O)NCCN2CCOCC2)C[C@H](C(=O)N2CCCCC2)[C@@]31CCc1ccccc1 (stereo not given in full)	inconclusive: -31.8% [inhibitor]	
COc1ccc(-n2cnc3cc(NC(=O)c4ccco4)ccc32)cc1	inactive: -26.7%	

SMILES	activity change, negative = growth inhibition	Potency
O=C(c1ccc2c(=O)n(C3CCCC3)c(=S)[nH]c2c1)N1CCc2ccccc21		active: 20.6 µM
O=C(CCNS(=O)(=O)c1ccccc1)OCC(=O)c1ccc[nH]1	inactive: 0.102%	
CCCCc1ccc(S(=O)(=O)N/N=C(/C)c2ccncc2)cc1		inconclusive [inhibitor, partial curve]
CCOc1cc(NC(=O)c2ccccn2)c(OCC)cc1NC(=O)c1ccc(Cl)cc1		active: 1.16 µM
Cc1ccnc(Nc2nc(-c3c(C)nc4sccn34)cs2)c1		inconclusive [inhibitor, single point]
COc1ccc(/C=C(\C#N)C(=O)Nc2cccnc2)cc1		inconclusive [inhibitor, single point]
COc1ccc(CSCC(=O)N/N=C/c2ccc(OCC(=O)NCc3ccco3)cc2)cc1		inconclusive [inhibitor, single point]
CC1CC(C)CN(CCCn2c(=S)[nH]c3ccccc3c2=O)C1 (stereo not given)		inconclusive [inhibitor, single point]
Cc1ccc(NC(=S)NCc2cccs2)cc1		inconclusive [inhibitor, full curve, poor fit]
CCOC(=O)c1ccc(N2C(=O)CC(N3CCC(C(=O)OCC)CC3)C2=O)cc1 (stereo not given)		inconclusive [inhibitor, single point]
CCc1cccc(C)c1NC(=O)CCn1c(=O)c2cccn2c2ccccc21		active: 23.1 µM
Cc1cc(C)n(-c2ccc(C(=O)N3CCN(S(=O)(=O)c4ccc(OC(F)(F)F)cc4)CC3)cc2)n1		inconclusive [inhibitor, single point]
COc1ccc(NS(=O)(=O)c2ccc(O)c(NS(=O)(=O)c3ccc(NC(C)=O)cc3)c2)cc1	inactive: 24.3%	
COc1ccc(C2/C=C\CN(C(=O)C3CCCCC3)CC(=O)N2Cc2ccc(F)cc2)cc1 (stereo not given)		inconclusive [inhibitor, single point]
COc1ccc(C)cc1S(=O)(=O)N1CCN(C(=O)c2ncoc2-c2ccccc2F)CC1		inconclusive [inhibitor, single point]
Cc1cccc(-c2noc(C(C)NC(=O)c3ccco3)n2)c1 (stereo not given)	inactive: -26.1%	
Cc1ccc(NS(=O)(=O)c2cc3[nH]c(=O)c(=O)[nH]c3cc2C)cc1Cl	inactive: -22.1%	
C[C@H]1CN([C@@H](C)CO)C(=O)CCCn2nncc2CO[C@H]1CN(C)C(=O)c1ccncc1	inconclusive: -35% [inhibitor]	
N#CCCCCn1ccc(NC(=O)c2ccc(Cl)cc2O)n1	inactive: -15.1%	
O=C(c1ccccc1F)N1CCN(c2ccc([N+](=O)[O-])c3ncccc23)CC1		active: 20.6 µM
CC(C#Cc1c([C@@H](C)Oc2ccccc2)nnn1Cc1ccccc1)Oc1ccccc1 (stereo not given in full)		inconclusive [inhibitor, single point]
CSC1=N/C(=C\c2c(F)cccc2Cl)C(=O)S1	inconclusive: -31.9% [inhibitor]	
